Measurements from paper PMC9911399, “Two distinct binding modes provide the RNA-binding protein RbFox with extraordinary sequence specificity”.
Where a chain is given by its changes, count along the chain named. This is one part of the list.

T1: RBFOX1 RRM (Homo sapiens, UniProt Q9NWB1 109-208)
T1 sequence: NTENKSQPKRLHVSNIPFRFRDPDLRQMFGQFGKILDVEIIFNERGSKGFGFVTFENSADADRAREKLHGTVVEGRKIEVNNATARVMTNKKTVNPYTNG

B1: CCAGUAA (DNA:RNA)
RNA: GGGAGACCGGAAUUCAGAUUGUCCCCAGUAAUUAAAUCCCGUCGUAGCCACCA
DNA 1: CAATCTGAATTCCGGTCTCCC
DNA 2: TGGTGGCTACGACGGGATT
B2: CUUUCGA (DNA:RNA)
RNA: B1 RNA with C26U, A27U, G28U, U29C, A30G
DNA 1: CAATCTGAATTCCGGTCTCCC
DNA 2: TGGTGGCTACGACGGGATT
B3: AGCUCCA (DNA:RNA)
RNA: B1 RNA with C25A, C26G, A27C, G28U, U29C, A30C
DNA 1: CAATCTGAATTCCGGTCTCCC
DNA 2: TGGTGGCTACGACGGGATT
B4: GUUUCCC (DNA:RNA)
RNA: GGGAGACCGGAAUUCAGAUUGUCCGUUUCCCUUAAAUCCCGUCGUAGCCACCA
DNA 1: CAATCTGAATTCCGGTCTCCC
DNA 2: TGGTGGCTACGACGGGATT
B5: UCAUCUC (DNA:RNA)
RNA: B4 RNA with G25U, U26C, U27A, C30U
DNA 1: CAATCTGAATTCCGGTCTCCC
DNA 2: TGGTGGCTACGACGGGATT
B6: GCCGGUU (DNA:RNA)
RNA: B1 RNA with C25G, A27C, U29G, A30U, A31U
DNA 1: CAATCTGAATTCCGGTCTCCC
DNA 2: TGGTGGCTACGACGGGATT
B7: CGAGUCC (DNA:RNA)
RNA: B1 RNA with C26G, A30C, A31C
DNA 1: CAATCTGAATTCCGGTCTCCC
DNA 2: TGGTGGCTACGACGGGATT
B8: AGCCCCG (DNA:RNA)
RNA: B4 RNA with G25A, U26G, U27C, U28C, C31G
DNA 1: CAATCTGAATTCCGGTCTCCC
DNA 2: TGGTGGCTACGACGGGATT
B9: UCUGUAA (DNA:RNA)
RNA: B1 RNA with C25U, A27U
DNA 1: CAATCTGAATTCCGGTCTCCC
DNA 2: TGGTGGCTACGACGGGATT
B10: AUGCUGG (DNA:RNA)
RNA: B1 RNA with C25A, C26U, A27G, G28C, A30G, A31G
DNA 1: CAATCTGAATTCCGGTCTCCC
DNA 2: TGGTGGCTACGACGGGATT
B11: AUACUGA (DNA:RNA)
RNA: B1 RNA with C25A, C26U, G28C, A30G
DNA 1: CAATCTGAATTCCGGTCTCCC
DNA 2: TGGTGGCTACGACGGGATT
B12: UAUGCUA (DNA:RNA)
RNA: B1 RNA with C25U, C26A, A27U, U29C, A30U
DNA 1: CAATCTGAATTCCGGTCTCCC
DNA 2: TGGTGGCTACGACGGGATT
B13: AAACGCU (DNA:RNA)
RNA: B1 RNA with C25A, C26A, G28C, U29G, A30C, A31U
DNA 1: CAATCTGAATTCCGGTCTCCC
DNA 2: TGGTGGCTACGACGGGATT
B14: GAACUUC (DNA:RNA)
RNA: B1 RNA with C25G, C26A, G28C, A30U, A31C
DNA 1: CAATCTGAATTCCGGTCTCCC
DNA 2: TGGTGGCTACGACGGGATT
B15: GAUUGUC (DNA:RNA)
RNA: B4 RNA with U26A, C29G, C30U
DNA 1: CAATCTGAATTCCGGTCTCCC
DNA 2: TGGTGGCTACGACGGGATT
B16: AACUUCU (DNA:RNA)
RNA: B4 RNA with G25A, U26A, U27C, C29U, C31U
DNA 1: CAATCTGAATTCCGGTCTCCC
DNA 2: TGGTGGCTACGACGGGATT
B17: CUUGUUG (DNA:RNA)
RNA: B1 RNA with C26U, A27U, A30U, A31G
DNA 1: CAATCTGAATTCCGGTCTCCC
DNA 2: TGGTGGCTACGACGGGATT
B18: CAGUCAG (DNA:RNA)
RNA: B1 RNA with C26A, A27G, G28U, U29C, A31G
DNA 1: CAATCTGAATTCCGGTCTCCC
DNA 2: TGGTGGCTACGACGGGATT
B19: UUUAGGG (DNA:RNA)
RNA: B4 RNA with G25U, U28A, C29G, C30G, C31G
DNA 1: CAATCTGAATTCCGGTCTCCC
DNA 2: TGGTGGCTACGACGGGATT
B20: ACGGCGU (DNA:RNA)
RNA: B1 RNA with C25A, A27G, U29C, A30G, A31U
DNA 1: CAATCTGAATTCCGGTCTCCC
DNA 2: TGGTGGCTACGACGGGATT

Target: T1, RBFOX1 RRM
Test: EMSA; HiTS-Eq, 1 nM pool, 10 min; buffer printed only for the single-RNA assays: 10 mM Tris pH 7.5, 150 mM NaCl, 3.4 mM EDTA, 0.001% NP-40, 30 C
Settings: tags: His6 N-terminal (pET28a); label: 5' 32P
How it was run: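 A pool of RNA with 7 randomized nucleotides, 5′-radiolabelled and with DNA-annealed flanks, was equilibrated at 1 nM for 10 min in 50 µL with purified RbFox RRM, wild type or mutant, across increasing protein concentrations. Free RNA was separated by 8% native PAGE, excised, reverse-transcribed, barcoded by PCR and sequenced. Relative association constants were obtained from read-count changes of each RNA species versus the control reaction and normalised to the cognate motif.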

Binder | binding signal
B1 | 0.00321 KA relative to UGCAUGU
B2 | 0.0138 KA relative to UGCAUGU
B3 | 0.00217 KA relative to UGCAUGU
B4 | 0.0233 KA relative to UGCAUGU
B5 | 0.00423 KA relative to UGCAUGU
B6 | 0.0184 KA relative to UGCAUGU
B7 | 0.0069 KA relative to UGCAUGU
B8 | 0.00377 KA relative to UGCAUGU
B9 | 0.00959 KA relative to UGCAUGU
B10 | 0.0176 KA relative to UGCAUGU
B11 | 0.00728 KA relative to UGCAUGU
B12 | 0.0112 KA relative to UGCAUGU
B13 | 0.00464 KA relative to UGCAUGU
B14 | 0.0117 KA relative to UGCAUGU
B15 | 0.0204 KA relative to UGCAUGU
B16 | 0.00236 KA relative to UGCAUGU
B17 | 0.0189 KA relative to UGCAUGU
B18 | 0.011 KA relative to UGCAUGU
B19 | 0.00239 KA relative to UGCAUGU
B20 | 0.0141 KA relative to UGCAUGU
